# From the supplement of paper PMC3334620
# Whole data set: some 33,000 sequences, median “E-score (-0.5 to 0.5)” near -0.054, cut for the highest 2% near 0.39. This is one part of the list.
# Target: Ylr278c (UniProt Q05854)
# Test: PBM E-score (8-mer binding enrichment) (E-score (-0.5 to 0.5)); higher = stronger / more preferred TF binding; most listed sequences are background and not binding sites
# Details: protein concentration: 200 nM; construct: GST-DNA-binding domain
# How it was run: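 Each ungapped eight-base word and its reverse complement, pooled, received an E-score from the Universal PBM Analysis Suite. Underlying scans, normalised with masliner, recorded fluorescent anti-GST bound to GST-tagged yeast transcription factors. These were applied at about 100-200 nM to universal all-10-mer Agilent arrays double-stranded by primer extension.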
row,Sequence,PBM E-score
1,AGATAGGG,-0.14
2,CTGCCAAA,-0.0486
3,CGATTCTA,-0.131
4,AAAAGTCC,0.371
5,AGTCCACT,-0.294
6,AAGAAGGT,-0.0973
7,CTACCGCC,0.147
8,AAGTCATC,-0.195
9,AGAAGGCC,0.0969
10,AAGAACGG,0.0623
11,ATCTGATC,0.00201
12,GGTGAATA,0.0908
13,AAACAGAC,-0.0477
14,ACGGACTA,0.315
15,CCGTCGCC,0.288
16,CGCTTAAG,-0.137
17,TAACCGAA,0.0695
18,ATCAAAAT,-0.184
19,GGTAGGAA,-0.0873
20,AACGTTCA,-0.299
21,AGGGCATC,-0.27
22,CATGCGTA,-0.0634
23,CCAAGAAA,-0.0453
24,TGCACGCA,-0.143
25,AATACTAA,-0.0403

row,Sequence,PBM E-score
1,GGAACCAC,0.0576
2,CATCCAGG,-0.187
3,ATATACTC,-0.0435
4,CACTATAA,-0.376
5,AGCGTATA,-0.0437
6,AAGCCGGC,0.372
7,CCAAGGTC,-0.0268
8,GCGGTCTA,0.0022
9,AGCAATTG,-0.0905
10,ACGCAGCT,-0.23
11,GTGACCTA,-0.132
12,AAATCCGA,0.449
13,CGTGGTAG,-0.0716
14,CGCTGATC,0.243
15,CCTTGTAC,-0.105
16,CCCCATAC,-0.00506
17,AGCTCAGG,-0.0847
18,AGTTTTGG,-0.03
19,CGGTGGAC,0.158
20,GACATGGA,-0.0811
21,CCTGGAGA,-0.285
22,GATGTGAC,-0.0139
23,GATCGATC,-0.0493
24,CACTCGAG,-0.22
25,CCTCCTCC,0.16

row,Sequence,PBM E-score
1,CAACTACA,-0.0431
2,CCCTGGGA,-0.0399
3,GCCAGCCA,-0.105
4,ATGTACCA,0.00795
5,AGAAACCC,0.173
6,TAATGTAA,-0.0653
7,AGCAGCCA,-0.259
8,GACTTGAA,0.0382
9,CCCTGAAG,-0.257
10,GCTTACAA,-0.275
11,AGCCTCGA,-0.214
12,AAAGGGAT,-0.205
13,AGAAAGCC,-0.0315
14,CTCTCCTC,-0.236
15,ACCCGCGG,0.363
16,CGTTCTAC,0.00488
17,CAAGAAAA,-0.0534
18,TACCCGCA,0.157
19,CAATGGAG,-0.129
20,AGTCACCG,0.101
21,CTCGGGCA,0.162
22,CTTAGTGA,-0.0946
23,AGACCATA,-0.0489
24,CGAGCCGA,0.0788
25,ATGACTCC,0.184

row,Sequence,PBM E-score
1,AAGGGCCG,0.0324
2,GGTACCCA,-0.151
3,AACATGCC,0.133
4,CCGCTACA,0.198
5,ATTACCAA,-0.0554
6,GCAAGTCC,0.129
7,AATCGATG,-0.17
8,AAAGGTAC,-0.0371
9,TCCCCCGA,0.263
10,CATGTCAC,-0.0432
11,ATACTGAG,-0.0928
12,ATGCGAAG,-0.0858
13,CCAAAATA,0.119
14,AGGTTGCA,-0.143
15,ATCCGAGG,0.274
16,GATGGTTA,-0.0541
17,CAGACAAG,-0.106
18,AAATCGAA,-0.194
19,CAGGCCAG,-0.132
20,CCAGGAGG,-0.216
21,CAACAGAA,-0.186
22,ATTAGAAG,-0.0313
23,GGGGGAAA,0.198
24,CTAAATGC,0.0793
25,AAAGGGAA,-0.104

row,Sequence,PBM E-score
1,AACGAATG,-0.0195
2,CAGTATAC,-0.155
3,CAAATACG,-0.128
4,CGGGGTTC,0.401
5,CAAAGAGC,-0.0821
6,GGAGCCCC,0.21
7,CTTTTCAA,-0.221
8,ATTCAGCA,-0.186
9,CGCCGAGC,0.314
10,CCTTGTGC,-0.304
11,TGCCCCAA,-0.016
12,CGTAGACA,-0.189
13,GAGGTTAC,0.0243
14,GAAAATAC,0.148
15,AAATCATG,-0.17
16,CCGTAAAG,0.102
17,GGCGCCCA,0.0663
18,CTGGTGGA,-0.0947
19,CCAACGGA,0.317
20,AACGATCT,-0.0642
21,ATACAGGA,0.104
22,GCTACTCA,-0.134
23,AGCGCACT,-0.0926
24,ACCATCGG,0.184
25,ACCGCGTA,0.158

row,Sequence,PBM E-score
1,CTCAACTC,0.0467
2,AGAAACTC,0.152
3,CCGGTCAC,0.261
4,AGGGACCA,-0.291
5,GCTCCGCC,0.382
6,AGTCTACC,-0.124
7,ACTGTTAG,-0.39
8,ACGTTCGG,0.222
9,GCACGAGC,-0.104
10,GCATAGAC,-0.0629
11,AGAAACAT,-0.0446
12,GACACCCC,-0.00873
13,AGGACAGC,-0.162
14,CACTAACC,-0.108
15,ACAAGTGA,-0.139
16,CGAAGTGA,-0.148
17,GCGTACTA,-0.15
18,ATGAGCAA,-0.0881
19,AAGACGAT,-0.136
20,AGCGCGCC,0.172
21,CAAATCAC,-0.147
22,AGATGCCT,-0.357
23,AGTAAACG,-0.031
24,CGATGAAA,0.0464
25,CATATGGG,0.00815

row,Sequence,PBM E-score
1,GTCGCACA,-0.121
2,GCGCCAAA,0.0971
3,CCTCGGAC,0.374
4,ACTCGACG,0.0799
5,GCCTCCGC,0.361
6,CCGATTAA,0.333
7,GCCGTCCC,0.198
8,AATACTTC,0.0297
9,CGTAACCC,0.0779
10,ACATCGTC,-0.209
11,CATTGTCC,0.314
12,CGGTGCAG,0.0301
13,ACCTCTAC,-0.147
14,GGACCCCA,-0.0193
15,CAACTTTC,0.136
16,GAGAGGTA,-0.177
17,CTCTTTGC,-0.105
18,AACAGTTC,-0.0219
19,GTTAACAA,0.105
20,AAGACGGA,0.258
21,TATCTGAA,-0.0492
22,CTCGACCC,-0.101
23,AATTTCGA,-0.116
24,ATAGGAGC,-0.14
25,GAAGAGAA,-0.0362

row,Sequence,PBM E-score
1,GTAGATTA,0.172
2,CTAGACAC,-0.0911
3,ATAGGCTA,-0.215
4,CCTAATTC,-0.0306
5,TGCAGGAA,0.014
6,AAAAACCG,0.224
7,AAGCACTA,-0.26
8,CACTAGGA,-0.125
9,TATTGGCA,-0.126
10,GCTCCTTA,0.039
11,TCGCCCCA,-0.103
12,AACTACGA,-0.123
13,CCACTACC,-0.0808
14,GGAGCGCC,0.14
15,CCTCCGAC,0.405
16,CTAACACA,-0.0287
17,CCCGAGCC,0.248
18,ATGTTAGA,-0.332
19,CTATTATA,-0.105
20,AACAGGAA,-0.227
21,CATCTGTC,0.0369
22,CCAGTCCA,-0.17
23,CCCAAATC,-0.0603
24,CCAGGATC,-0.0423
25,ATCACTCG,-0.137

row,Sequence,PBM E-score
1,AGCTGCAG,0.0452
2,GTTTTAGA,-0.153
3,CCTAAAGG,-0.187
4,AGCAGGTC,-0.0366
5,AGACTGCA,-0.325
6,ACGCAGAA,-0.0444
7,ACAATTGA,-0.21
8,GTTTAAGA,0.0523
9,ACCGCAGC,0.0746
10,AGTTTGAA,0.0583
11,CTCTCAGC,-0.266
12,CCCGCTCG,0.198
13,AGATTAAC,-0.133
14,ATACCAGG,-0.15
15,CCACGGGC,0.176
16,ATAGTACG,0.0782
17,CAATGATC,-0.236
18,ATTGGACA,-0.0149
19,AAGCCAAG,-0.15
20,CATCGATG,-0.116
21,CACACGGA,0.343
22,GGGCTACC,-0.204
23,CTGCGACA,0.094
24,CTCAAGAG,-0.332
25,AGCTCTAA,-0.113

row,Sequence,PBM E-score
1,AGCATGCA,-0.287
2,CACTAATA,-0.0115
3,AGACACCT,-0.185
4,ATATTGTA,-0.0999
5,CCTTACCG,0.121
6,ATGTAGAC,-0.206
7,ATAGTTAG,0.0157
8,TAGGATGA,-0.143
9,GTATTGTA,0.0802
10,CACGTGCG,0.0856
11,CACCTCCA,0.0316
12,TAACAACA,-0.124
13,CTTGTTGC,-0.122
14,ATTAGCCG,0.2
15,ACCATAGC,-0.169
16,ACACGTTA,-0.323
17,AAAAATTC,0.0416
18,AAAAGCAC,-0.146
19,ATAATCAG,-0.0432
20,CATGGGTA,-0.0498
21,CGTATGAC,-0.0488
22,GTCTGGTA,-0.199
23,GATGAAGC,0.0542
24,GGCTCGAA,-0.0974
25,TCTACCCA,-0.14

row,Sequence,PBM E-score
1,GAGGACCC,0.0491
2,CACGTAAG,-0.21
3,CCGCTGTC,0.218
4,AAGCCTGC,-0.0717
5,ATTGACAA,-0.0408
6,TATACCGA,0.221
7,CCAGCAAA,-0.0997
8,AAATTTGC,-0.0386
9,AAATACTA,-0.165
10,ACCTAGCG,-0.129
11,ATAGCTGG,-0.0378
12,AGGGGCGG,0.273
13,CAATAGGG,-0.0831
14,CGAGTCCC,0.228
15,AAACCCAC,-0.0015
16,ACATTGTC,0.2
17,ACGAGCGT,-0.234
18,CGTCTGGA,-0.166
19,AGCCATGC,-0.0365
20,AGATGGGG,-0.218
21,AACTTAGA,-0.137
22,GGATCCTA,-0.0491
23,AGCTTTAT,-0.146
24,AAATAGCA,-0.0369
25,GACATTGA,0.0872

row,Sequence,PBM E-score
1,CCATCCAG,-0.239
2,CTCGCGGA,0.37
3,ATTTCCAA,0.0312
4,AGCTCACA,-0.249
5,CACTAGAC,-0.0784
6,ACTGCTAA,-0.185
7,ATAGTGCA,-0.0512
8,CCAACCGA,-0.17
9,AGGCCCCA,-0.11
10,GATGCAGA,-0.155
11,CTAACGAG,0.00302
12,CCTGAACG,0.0468
13,ACACACAA,-0.127
14,CGAGCGCC,0.182
15,AGCTGAGG,-0.201
16,CGAGGACC,-0.0858
17,CCGGTTCG,0.305
18,ACCCCTAA,-0.127
19,ACAAAGGT,-0.181
20,ACAAACGT,-0.21
21,CACTGCAA,-0.202
22,CCATAAGG,-0.401
23,AATCGGCG,0.323
24,TAAGGTCA,-0.21
25,ACGTCGCT,-0.0224

row,Sequence,PBM E-score
1,GGTTCCAC,-0.0232
2,CGCCCGGA,0.435
3,ACGGCCCA,0.0106
4,AGTTTCCG,0.384
5,CAGTCTAG,-0.227
6,ATTGGGCA,-0.18
7,CTAGGTCA,-0.237
8,ATCGCTGG,-0.0433
9,ACGTAGAA,-0.0803
10,TGAATCAA,-0.0372
11,ATCATCTC,0.089
12,GTTCAACA,-0.0482
13,AAACACCA,-0.136
14,AAAGTCTA,-0.118
15,ATTCCACA,0.115
16,GAGAACAA,0.127
17,ACTGACGC,-0.315
18,CCCATCAA,-0.136
19,TGCTGCCA,-0.168
20,CACCTTCC,-0.0509
21,GTATAGGA,-0.317
22,GCCCCAGC,-0.0856
23,AAGTTCCC,0.131
24,AGGACTTG,-0.209
25,GCGAAGGA,-0.16

row,Sequence,PBM E-score
1,AAATTAAG,-0.013
2,CTATAACC,-0.164
3,CCATGCGG,0.113
4,AGTTATTA,-0.0333
5,CTTCCTGC,-0.209
6,CAGTGCTA,-0.173
7,GTCATGCA,-0.0941
8,CCCCCACG,-0.214
9,ACATCGGA,0.377
10,AGCCTGTG,-0.305
11,ATCTCTAC,-0.218
12,CACTGCCG,0.215
13,GACTTTAA,-0.0643
14,ACCTTGTG,-0.131
15,ATAACAAA,0.119
16,AGACAGGG,-0.276
17,ACAACTTA,-0.219
18,GTCCGTTA,0.332
19,AAAATACA,-0.117
